Data published in PubChem BioAssay AID602233 (National Center for Advancing Translational Sciences (NCATS), 2012).
Screen size: about 380,000 compounds; about 170 (0.045%) were called active. Calls come from the whole dose curve; as a rule, active = well fitted inhibition curve with a large enough effect; inconclusive = small, poorly fitted or top-dose-only effect; inactive = no such curve, though single readings can be large or run the other way. The list shows a part of the results, in another mix than the full data. More than one record can exist for a structure, and the calls need not agree. Where a SMILES comes first, the peptide text is derived from it. Bridges are numbered along the chain shown (N, C = ends). [ ]: non-standard residue; d: D form. The star is where a group is joined. X1 = CCC(C)C(N)C1=NC(C(=O)*)CS1; dOrn = NCCC[C@@H](N)C(=O)O

Target: Phosphoglycerate kinase, glycosomal (Trypanosoma brucei brucei) (UniProt P07378)
Assay: qHTS Assay to Find Inhibitors of Phosphoglycerate Kinase; note: nearly all actives have a fitted effect of over 60% in size
Settings: PGK/GAPDH coupled, Kinase-Glo luminescence, 60 min; series mostly up to 57.5 µM; activity change, negative = inhibition: at the top concentration
How it was run: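 Recombinant glycosomal PGK reaction used 1,3-bisphosphoglycerate generated in-well by GAPDH (100nM final) in 100mM TEA pH 7.6, 5mM MgCl2, 0.01% Tween-20. After 60 minutes at room temperature, ATP was read by Kinase-Glo Plus luminescence end-point.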
% is set by controls: 0 for no effect and ±100 for the full control effect; potency is the fitted concentration of half-maximal effect.

SMILES | Potency | activity change, negative = inhibition | outcome
O=C(O)c1ccc(-c2ccc(/C=C3\NC(=O)N(Cc4ccc(Cl)cc4)C3=O)o2)cc1Cl | active: 25.1 µM | – | –
Cc1nc2ccccn2c1C(=O)NN | – | inactive: 31% | –
C=C(C)C(=O)Nc1cccc(C2=NOC3(C2)C[C@H](C(N)=O)N(C(=O)C(c2ccccc2)c2ccccc2)C3)c1 (stereo partly specified) | active: 7.94 µM | – | –
CN(C)c1ncc(S(=O)(=O)c2ccc(Cl)cc2)c(-c2ccc(Cl)cc2Cl)n1 | – | inactive: 17% | –
CCCCCC(=O)Nc1cc(S(=O)(=O)O)cc2cc(S(=O)(=O)O)cc(O)c12 | active: 1.12 µM | – | –
CCOC(=O)c1c(S(=O)(=O)NCC(=O)Nc2cc(C)ccc2C)c(C)n(C)c1C | – | inactive: -1.55% | –
C[C@@H]1O[C@@H](OC[C@H]2O[C@@H](Oc3c(-c4ccc(O)cc4)oc4cc(O)cc(O)c4c3=O)[C@H](O)[C@@H](O)[C@@H]2O)[C@H](O)[C@H](O)[C@H]1O | – | inactive: -1.24% | –
COc1ccc(C2=CC3=C(Br)C(=O)C(C)(OC(=O)C4CCCC4)C(=O)C3=CO2)cc1 (stereo unspecified) | active: 17.8 µM | – | –
COc1ccc2nc3oc(C(=O)N4CCN(c5cccc(Cl)c5)CC4)cc3cc2c1 | – | inactive: 21.4% | –
COc1nc(N)c(S(=O)(=O)c2ccccc2)cc1C#N | – | inactive: 24.7% | –
O=C1CCN(c2ccc([N+](=O)[O-])cc2F)CC1 | – | inactive: 23.7% | –
O=C(O)COc1ccc2c(c1)O/C(=C\c1ccco1)C2=O | active: 28.2 µM | – | –
COc1ccc(OC)c(/C=C/C(=O)OCC(=O)N2C(C)CCCC2C)c1 (stereo unspecified) | – | inactive: 20.2% | –
O=C1C=CC2=C3c4cc(O)c(O)cc4CC3(O)COC2=C1O (stereo unspecified) | active: 2.82 µM | – | –
CN(CCC#N)C(=O)COC(=O)c1c2c(nc3ccccc13)/C(=C\c1ccco1)CC2 | – | inactive: -28.8% | –
COc1ccc(Nc2nc(NCc3ccco3)nc(N)c2[N+](=O)[O-])cc1 | – | inactive: 24.4% | –
CCN1CCN(Cc2ccc(NC(=O)c3ccc(C)c(NC(=O)N4CCNC4=O)c3)cc2C(F)(F)F)CC1 | inactive | – | –
Cc1cc(C)n2nc(C)c(Br)c2n1 | – | inactive: 31.8% | –
CN(C)c1ccc(N=Nc2nc3ccccc3n2C)cc1 | active: 14.1 µM | – | –

SMILES | Potency | activity change, negative = inhibition | outcome
COc1cccc(C(=O)C2CCCN(C(=O)CCc3scnc3C)C2)c1 (stereo unspecified) | – | inactive: 23.9% | –
NS(=O)(=O)c1cc(C(=O)NC2CCSc3ccccc32)ccc1Cl (stereo unspecified) | active: 1 µM | – | –
COc1ccc(CC(=O)NNc2ncnc3c2cnn3-c2ccccc2)cc1 | – | inactive: 27.9% | –
O=c1c2ccccc2nc(/C=C/c2ccc3c(c2)OCO3)n1CCCO | – | inactive: -7.63% | –
Cc1ccc(-c2nnc3ccc(SCC(=O)Nc4cc(C)on4)nn23)cc1 | – | inactive: 33.2% | –
CCN(CC)S(=O)(=O)c1cccc(NC(=O)CSc2nnc(N)s2)c1 | – | inactive: 29.8% | –
CN(CCOC(=O)/C=C/c1ccco1)Cc1ccccc1 | active: 11.2 µM | – | –
CCCC(C(=O)NC1CCCC1)N(CC1CCCO1)C(=O)CNS(=O)(=O)c1ccc(F)cc1 (stereo unspecified) | – | inactive: 19.3% | –
CC(C)C(C(=O)O)N1C(=O)/C(=C/C=C/c2ccco2)SC1=S (stereo unspecified) | active: 8.91 µM | – | –
O=C(NCCCN1CCCC1)c1ccc2c(Cl)c3c(nc2c1)CCCC3 | – | inactive: 1.62% | –
O=S(=O)(O)c1cc(O)c(N=Nc2ccc(O)cc2O)c2ccccc12 | active: 25.1 µM | – | –
NC[C@H](O)c1ccc(O)c(O)c1 | – | inactive: -4.16% | –
COC(=O)C1=C(C)N=c2s/c(=C/c3cccs3)c(=O)n2C1c1ccc(F)cc1 (stereo unspecified) | – | inactive: 22.1% | –
CC(C)(C)OC(=O)C[C@H]1C/C=C\C[C@@H](CC(=O)N(CCO)Cc2ccccc2)C(=O)NC[C@H](c2ccccc2)OC1=O | – | inactive: -0.192% | –
Cc1csc(N=Nc2ccc(N(C)C)cc2)[n+]1[O-] | active: 15.8 µM | – | –
C#CCOCCOCCOCCNc1nc(N2CCN(C(=O)CCCCCCCCCCNC(=O)[C@H]([C@@H](C)CC)n3cc(CCCCCN)nn3)CC2)nc(N2CCN(C(=O)CCCCCCCCCCNC(=O)[C@H](CO)n3cc(CCCCCN)nn3)CC2)n1 | – | inactive: 17.2% | –
O=C(O)c1cccc(-n2cccc2/C=C\[N+](=O)[O-])c1 | – | inactive: -27.9% | –
Cc1nn2c(NCCOCCO)c3c(nc2c1-c1ccccc1)CCCC3 | – | inactive: 18.5% | –
CC(=O)N(C(C)=O)c1nc2nc(C)cc(C)n2n1 | – | inactive: 21.9% | –

SMILES | Potency | activity change, negative = inhibition | outcome
CN(C)C(CNC(=O)CNC(=O)c1ccc(Br)cc1)c1ccccc1 (stereo unspecified) | – | inactive: 12.4% | –
Cc1nc2cc(-c3ccccc3)sc2c(=O)n1N | active: 10 µM | – | –
Cc1nonc1OCCNc1ccc([N+](=O)[O-])cc1 | – | inactive: 31.2% | –
Cc1ccc(-c2nc(CS(=O)CC(=O)N3CCN(c4cccc(Cl)c4)CC3)c(C)o2)cc1 (stereo unspecified) | – | inactive: 20.3% | –
CC1CCN(S(=O)(=O)c2ccc3nc(N4CCN(c5ccccc5)CC4)ccc3c2)CC1 | – | inactive: -2.14% | –
c1ccc(-c2n[nH]c(-c3ccccn3)n2)nc1 | – | inactive: -11.9% | –
O=C(N/N=C/c1ccccc1Cl)c1ccc(F)cc1 | – | inactive: 28.9% | –
O=C(O)C1Nc2c(Cl)cc(Cl)cc2C2C=CCC12 (stereo unspecified) | active: 25.1 µM | – | –
COc1ccc(CCNC(=S)Nc2cccc(C)c2C)cc1 | – | inactive: 17.9% | –
CC(/C=N\N1CCN(Cc2ccc(C)cc2)CC1)=C\c1ccccc1 | – | inactive: -4.43% | –
O=C(O)c1cc(-c2ccco2)nc2ccc(Br)cc12 | – | inactive: -15.3% | –
COc1ccc(N2CCN(C(=O)Nc3ccccc3Cl)CC2)cc1 | – | – | inactive
CCc1cc(=O)oc2cc(C)cc(OCC(=O)NC3CC3)c12 | – | inactive: 17.3% | –
CCCOc1ccc(CNC(=O)CCCn2nc(C)c3sc4ccccc4c3c2=O)cc1 | – | inactive: 17.2% | –
O=C1/C(=C\c2ccco2)CCC/C1=C\c1ccco1 | – | inactive: -2.62% | –
CCC(C)C(N)C1=NC(C(=O)N[C@@H](CC(C)C)C(=O)N[C@H](CCC(=O)O)C(=O)N[C@H](C(=O)N[C@H]2CCCCNC(=O)[C@H](CC(N)=O)NC(=O)[C@@H](CC(=O)O)NC(=O)[C@H](Cc3cnc[nH]3)NC(=O)[C@@H](Cc3ccccc3)NC(=O)[C@H]([C@@H](C)CC)NC(=O)[C@@H](CCCN)NC2=O)[C@@H](C)CC)CS1 (stereo partly specified) (X1-L[dE]IK[dOrn]I[dF]H[dD]N; lactam 4-C) | – | inactive: 2.35% | –
Cc1cc(C)cc(-n2c(C)cc(/C=C3\C(=N)N4N=C(CC(C)C)SC4=NC3=O)c2C)c1 | – | inactive: 19.8% | –
CO/N=C(\C(=O)N[C@@H]1C(=O)N2C(C(=O)O)=C(COC(C)=O)CS[C@H]12)c1csc(N)n1 (stereo in doubt) | inactive | – | –
